{"source": "PubChem BioAssay AID2451", "about": "(National Center for Advancing Translational Sciences (NCATS), 2010)", "note": "Where “and” joins values, the source holds several entries; their conditions need not be identical. Equal values may be shown once. Hit rate of the full screen: of about 290,000 compounds, about 2,100 (0.72%) were called active. Inconclusive means that the source gave no clear call. Such entries were picked first, then a sample of the others. The call rests on the fitted dose curve; in most records, active means well fitted inhibition curve with a large enough effect; inconclusive means small, poorly fitted or top-dose-only effect, or effect the other way; inactive means flat fitted curve, though single readings scatter. Where the call is inconclusive, the potency comes from a doubtful curve fit. Potency means the concentration at half of the fitted maximal effect; tags describe the fitted curve by direction and shape."}
{"biological_target": "Fructose-bisphosphate aldolase (Giardia intestinalis (strain ATCC 50803 / WB clone C6)) (UniProt A8B2U2)", "sequence (A8B2U2 whole entry, looked up)": "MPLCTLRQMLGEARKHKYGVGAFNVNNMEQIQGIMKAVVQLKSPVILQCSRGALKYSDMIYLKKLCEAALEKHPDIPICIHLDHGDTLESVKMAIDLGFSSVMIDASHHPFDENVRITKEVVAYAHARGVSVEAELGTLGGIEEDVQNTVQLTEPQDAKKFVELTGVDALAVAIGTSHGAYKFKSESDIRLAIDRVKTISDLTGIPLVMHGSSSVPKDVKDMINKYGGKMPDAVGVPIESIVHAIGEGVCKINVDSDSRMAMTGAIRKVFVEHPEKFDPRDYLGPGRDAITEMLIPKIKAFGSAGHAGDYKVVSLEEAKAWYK", "test": "qHTS Assay for Inhibitors of Fructose-1,6-bisphosphate Aldolase from Giardia Lamblia; further: nearly all actives have a fitted effect of over 55% in size", "conditions": "purified Giardia FBPA; series mostly up to 59.6 µM", "outline": "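40 nM FBPA preincubated 10 min at RT with compound (up to 57.5 uM final), then substrate plus GAPDH/TPI/NAD/arsenate coupling and diaphorase/resazurin added. Fluorescence read after 20 min at RT, 525/598 nm.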"}
{"smiles": "N#Cc1ccc(-c2csc(NNC(=O)c3ccc(Br)cc3)n2)cc1", "Potency": "inactive"}
{"smiles": "Cc1c[nH]c2cccc(OCC(O)CNC(C)(C)C)c12", "note": "(stereo unspecified)", "Potency": "inconclusive: 17.7 µM [inhibitor, single point]"}
{"smiles": "COc1ccc(CN2CCN(Cc3c[nH]c4ccccc34)CC2)cc1", "Potency": "inconclusive: 15.8 µM [inhibitor, partial curve]"}
{"smiles": "Cc1cc(C(F)F)nn1CC(=O)NC1C(=O)N2C(C(=O)O)=C(CSc3nnnn3C)CSC12", "note": "(stereo unspecified)", "Potency": "inconclusive: 17.7 µM [inhibitor, partial curve]"}
{"smiles": "O=[N+]([O-])c1c(NCc2ccccc2)cc(N2CCc3ccccc3C2)c2nonc12", "Potency": "inconclusive: 0.316 µM [inhibitor, full curve]"}
{"smiles": "COc1ccc(N/C=C/C(=O)C(C)(C)C)cc1", "Potency": "inactive"}
{"smiles": "CCN(CCn1cccn1)C(=O)CCc1nnc(-c2ccccc2)o1", "Potency": "inactive"}
{"smiles": "Cc1ccc(N/N=C(\\C#N)C(=N)N2CCCCC2)cc1", "Potency": "inconclusive: 22.3 µM [inhibitor, partial curve]"}
{"smiles": "COc1ccc(Br)cc1S(=O)(=O)NCCCN1CCOCC1", "Potency": "inactive"}
{"smiles": "Oc1ccc2c3c1O[C@H]1c4[nH]c5ccccc5c4C[C@@]4(O)C(C2)N(CC2CC2)CCC314", "note": "(stereo partly specified)", "Potency": "inactive"}
{"smiles": "CCn1c(SCC(=O)c2ccc3c(c2)OCCO3)nnc1-c1ccco1", "Potency": "inconclusive: 15.8 µM [inhibitor, single point]"}
{"smiles": "CC1C(=O)N(C)C(=O)c2nc[nH]c21", "note": "(stereo unspecified)", "Potency": "inactive"}
{"smiles": "CCc1[nH]c(=S)c(C#N)c(-c2ccccc2)c1C(=O)OC", "Potency": "inconclusive: 14.1 µM [activator, partial curve]"}
{"smiles": "CC1CCCC(NC(=O)CNCc2ccccc2F)C1C", "note": "(stereo unspecified)", "Potency": "inconclusive: 17.7 µM [inhibitor, partial curve]"}
{"smiles": "O=C(Nc1ccccc1-c1ccccc1)c1ccc(Br)o1", "Potency": "inactive"}
{"smiles": "Cc1noc(C)c1COc1cccc(C(=O)OC(C)C#N)c1", "note": "(stereo unspecified)", "Potency": "inactive"}
{"smiles": "O=C(N/N=C/c1ccccn1)C(=O)N1CCCCCC1", "Potency": "active: 17.7 µM"}
{"smiles": "CCOC(=O)c1cnc(-c2ccc(C(F)(F)F)cn2)[nH]c1=O", "Potency": "active: 5 µM"}
{"smiles": "O=C1CCC/C1=C/Nc1ccc2c(c1)OCO2", "Potency": "inconclusive: 25.1 µM [inhibitor, single point]"}
{"smiles": "CCCCOC(=O)CCN1C(=O)/C(=C2\\SC(=S)N(CCC(=O)OCCCC)C2=O)SC1=S", "Potency": "inactive"}
{"smiles": "CCCc1cc(=O)n2[nH]c(C)c(-c3ccc(Cl)cc3)c2n1", "Potency": "inconclusive: 7.94 µM [inhibitor, full curve]"}
{"smiles": "Cc1ccc(CN2CCN(C(=O)C3CCC3)CC2)cc1", "Potency": "inactive"}
{"smiles": "Cc1nc2nc(-c3ccc(Cl)cc3)[nH]n2c(=O)c1C", "Potency": "inconclusive: 14.1 µM [inhibitor, partial curve]"}
{"smiles": "CC(C)CC(=O)N1CCN(Cc2ccccc2Br)CC1", "Potency": "inconclusive: 28.2 µM [inhibitor, single point]"}
{"smiles": "O=CN1CCc2c([nH]c3ccccc23)C1c1cccc2cccnc12", "note": "(stereo unspecified)", "Potency": "inactive"}
{"smiles": "O=C(COc1cccc2cccnc12)NCC(F)(F)F", "Potency": "inconclusive: 15.8 µM [inhibitor, partial curve]"}
{"smiles": "COc1cccc(CN2CCN(C(=O)c3ccc(-c4ccccc4)cc3)CC2)c1", "Potency": "inconclusive: 17.7 µM [inhibitor, partial curve]"}
{"smiles": "COc1ccc(NC(=S)Nc2ccc3cn[nH]c3c2)cc1", "Potency": "inconclusive: 9.98 µM [inhibitor, partial curve]"}
{"smiles": "O=C(Nc1ccc(N2CCOCC2)c(Cl)c1)c1ccc(F)cc1", "Potency": "inactive"}
{"smiles": "CCOc1ccc(/C(O)=C2/C(=O)C(=O)N(CCOCCO)C2c2ccccn2)cc1", "note": "(stereo unspecified)", "Potency": "inactive"}
{"smiles": "CN(Cc1ccco1)S(=O)(=O)c1ccc2c(c1)CCN2C(=O)CCC(=O)O", "Potency": "inactive"}
{"smiles": "O=C1c2ccccc2NC(c2ccc(-c3cccc(Cl)c3)o2)N1O", "note": "(stereo unspecified)", "Potency": "inconclusive: 4.46 µM [inhibitor, full curve]"}
{"smiles": "COc1cc(C(=O)N2CCCCCCC2)ccc1OC1CCN(C(C)=O)CC1", "Potency": "inactive"}
{"smiles": "N#CC1=C(N)OC2=C(CN(Cc3ccccc3)C/C2=C\\c2cccnc2)C1c1cccnc1", "note": "(stereo unspecified)", "Potency": "inconclusive: 15.8 µM [inhibitor, partial curve]"}
{"smiles": "COc1ccc(CN2CCN(c3ncccn3)CC2)c(C)c1C", "Potency": "inconclusive: 28.2 µM [inhibitor, partial curve]"}
{"smiles": "Oc1ccc(/C=N/NP(=S)(c2ccccc2)c2ccccc2)c(O)c1O", "Potency": "inconclusive: 4.46 µM [inhibitor, partial curve]"}
{"smiles": "COc1ccccc1N1CCN(C2CCN(C(=O)c3cc(OC)c(OC)c(OC)c3)CC2)CC1", "Potency": "inconclusive: 15.8 µM [inhibitor, single point]"}
{"smiles": "NC(=NCCc1c[nH]c2ccccc12)NC(=O)c1ccc(F)cc1", "Potency": "inactive"}
{"smiles": "COc1ccc(-n2nc(C)c3sc(C)nc3c2=O)cc1", "Potency": "inactive"}
{"smiles": "O=C1C=C(O)c2ccccc2C1=O", "Potency": "inconclusive: 15.8 µM [inhibitor, partial curve] and inconclusive: 15.8 µM [inhibitor, single point]"}
{"smiles": "Cc1ccc(CN2CCN(C(=O)c3ccncc3)CC2)cc1", "Potency": "active: 17.7 µM"}
{"smiles": "CC1=C2C(=CO[C@H](C)[C@H]2C)C(=O)C(C(=O)O)=C1O", "Potency": "inconclusive: 12.6 µM [inhibitor, partial curve]"}
{"smiles": "COc1ccc(/C=C2/N=C3CCCCCN3C2=O)cc1OC", "Potency": "inactive"}
{"smiles": "CN1CCN(C(=O)C2=C[C@@H](c3ccc4c(c3)OCO4)C[C@@H](OCc3ccc(CO)cc3)O2)CC1", "Potency": "inactive"}
{"smiles": "CC1CCCC(N2CCN(S(=O)(=O)c3ccccc3)CC2)C1", "note": "(stereo unspecified)", "Potency": "inconclusive: 28.2 µM [inhibitor, partial curve]"}
{"smiles": "O=C(Nc1cccnc1)c1ccc(CN2CCc3ccccc3C2)cc1", "Potency": "inconclusive: 15.8 µM [inhibitor, single point]"}
{"smiles": "CC(c1ccccc1C(O)(c1ccccc1)c1ccccc1)N(C)C", "note": "(stereo unspecified)", "Potency": "inactive"}
{"smiles": "COC(=O)c1cc(S(=O)(=O)N2CCN(c3cccc(Cl)c3)CC2)c[nH]1", "Potency": "inconclusive: 11.2 µM [inhibitor, partial curve]"}
{"smiles": "O=C1C[C@H](c2ccc(-c3ccccc3)cc2)N1S(=O)(=O)c1ccccc1[N+](=O)[O-]", "Potency": "inconclusive: 17.7 µM [activator, single point]"}
{"smiles": "Cc1sc2nc(CSc3ccccc3)nc(NCCN(C)C)c2c1C", "Potency": "inactive"}
{"smiles": "COc1ccc(Cl)cc1NC(=O)CNCc1cccs1", "Potency": "inconclusive: 28.2 µM [inhibitor, single point]"}
{"smiles": "COc1ccc(C)cc1Nc1nc(C)nc2c1oc1ccccc12", "Potency": "inconclusive: 28.2 µM [inhibitor, partial curve]"}
{"smiles": "O=C(NCC1CCCO1)C(c1ccco1)N(Cc1ccc(F)cc1)C(=O)CN1C(=O)c2ccccc2S1(=O)=O", "note": "(stereo unspecified)", "Potency": "inactive"}
{"smiles": "CCOC(=O)c1ccc(NC(=S)Nc2ccccn2)cc1", "Potency": "inactive"}
{"smiles": "O=C(c1cc(-c2ccccc2)nc2ccccc12)N1CCOCC1", "Potency": "inactive"}
{"smiles": "CN(C)CCn1c2ccccc2c2nc3ccc([N+](=O)[O-])cc3cc21", "Potency": "inactive"}
{"smiles": "Cc1ccc(N2CSC3=C(C#N)C(c4cccs4)CC(=O)N3C2)cc1", "note": "(stereo unspecified)", "Potency": "inconclusive: 0.792 µM [inhibitor, full curve]"}
{"smiles": "CC(=O)CSc1nc2cc3c(cc2cc1C#N)OCCO3", "Potency": "inconclusive: 7.06 µM [inhibitor, partial curve]"}
{"smiles": "CCOC(=O)C1CCCCN1Cc1ccccc1C(F)(F)F", "note": "(stereo unspecified)", "Potency": "inconclusive: 22.3 µM [inhibitor, partial curve]"}
{"smiles": "Cc1cccc(-n2ncc3c(NCc4ccccn4)ncnc32)c1", "Potency": "inactive"}
{"smiles": "CCN(CC)S(=O)(=O)c1cccc(C(=O)Nc2cccnc2)c1", "Potency": "inconclusive: 7.06 µM [activator, single point]"}
{"smiles": "Cc1ccc(-c2cc(C(=O)O)c3cc(Br)ccc3n2)o1", "Potency": "inconclusive: 15.8 µM [inhibitor, partial curve]"}
{"smiles": "CN1CCN(c2nc3c(c(=O)[nH]c(=O)n3C)n2Cc2ccccc2)CC1", "Potency": "inactive"}
{"smiles": "CN(Cc1ccccc1)C(=O)c1[nH]cnc1C(=O)NCC(=O)OC(C)(C)C", "Potency": "inconclusive: 10 µM [inhibitor, partial curve]"}
{"smiles": "COc1cc(OC)c(CN2CCC(Cc3ccccc3)CC2)cc1Br", "Potency": "inconclusive: 22.4 µM [inhibitor, partial curve]"}
{"smiles": "OCCN1CCN(C(=S)c2ccc(Br)cc2)CC1", "Potency": "inconclusive: 31.5 µM [inhibitor, single point]"}
{"smiles": "CC1CCC(N2CCN(C(=O)COc3ccccc3)CC2)CC1", "note": "(stereo unspecified)", "Potency": "inconclusive: 14.1 µM [inhibitor, partial curve]"}
{"smiles": "CCN1CC2=C(OC(N)=C(C#N)C2c2cccs2)/C(=C/c2cccs2)C1", "note": "(stereo unspecified)", "Potency": "inconclusive: 19.9 µM [inhibitor, single point]"}
{"smiles": "CCn1c2ccc(F)cc2c2nnc(NN)nc21", "Potency": "inconclusive: 15.8 µM [inhibitor, single point]"}
{"smiles": "Cc1cc(-c2ccc(C(C)C)c(S(=O)(=O)Nc3cc(C)on3)c2)on1", "Potency": "inconclusive: 22.4 µM [inhibitor, partial curve]"}
{"smiles": "Clc1ccc(CCNCc2ccncc2)c(Cl)c1", "Potency": "inconclusive: 20 µM [inhibitor, partial curve]"}
{"smiles": "O=C(CSc1n[nH]c(-c2ccccn2)n1)Nc1ccc(Cl)cc1", "Potency": "inconclusive: 25.1 µM [inhibitor, single point]"}
{"smiles": "C1CCC(C(CC2CCCCN2)C2CCCCC2)CC1", "note": "(stereo unspecified)", "Potency": "inactive"}
{"smiles": "O=c1[nH]c(=S)[nH]c2c1CN(Cc1ccc(F)cc1)CC2", "Potency": "inconclusive: 25.1 µM [inhibitor, partial curve]"}
{"smiles": "CN(C)c1cccc(C(=O)OCC(=O)Nc2ccccc2-c2ccccc2)c1", "Potency": "inactive"}
{"smiles": "COC(=O)c1ccc(C(=O)OC)c(NC(=O)CSc2cccc[n+]2[O-])c1", "Potency": "active: 11.2 µM"}
